The whole screen tested about 360,000 compounds, of which about 7,500 (2.1%) were called active. This list was built around the results that the source calls inconclusive (neither active nor inactive); the mix of calls is not that of the screen. Calls follow the shape of the dose curve; as a rule, active = well fitted cell-killing curve with a large enough effect; inconclusive = small, poorly fitted or top-dose-only effect, or effect the other way, or another doubt; inactive = no such curve, though single readings can be large or run the other way. No potency is given beside an inconclusive call; the fits are too rough. A structure can be active in one record and inactive in another.
Test: qHTS for induction of synthetic lethality in tumor cells producing 2HG: qHTS for the HT-1080-IDH1KD cell line;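 as to activity, negative = toxicity: 0% = DMSO wells and -100% = cell-free medium wells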
Conditions: HT-1080 IDH1 knockdown viability, ATP luminescence, 48 h; activity, negative = toxicity: at 46.1 µM (top of the series) unless noted
Outline: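 Assay cells: HT-1080 with IDH1 knockdown, 750 per well, RPMI/5% FBS. Exposure: 48 h at 37 °C following 2 h pre-incubation. Read: CellTiter-Glo luminescence; fitted concentration-response, curve class assigned.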
Potency is read from the fitted curve at half-maximal effect; tags tell the direction and shape of the fitted curve.

| Compound | Potency | activity, negative = toxicity |
| --- | --- | --- |
| CCc1ccc(/C=C2\Oc3ccc(C(=O)OC)cc3C2=O)cc1 | inconclusive [rising, partial curve] |  |
| COc1cc(C(=O)NC2CC3CCCC(C2)N3CC(=O)Nc2ccccc2)cc(OC)c1OC (configuration not stated) | inactive |  |
| Cc1ccc2[nH]c(=O)c(CN(Cc3ccc4c(c3)OCO4)Cc3nnnn3C3CCCC3)cc2c1 | inactive |  |
| O=C(Cc1ccccc1)NNC(=S)NC(=O)c1cccs1 | inconclusive [cytotoxic, partial curve] |  |
| Cc1[nH]nc2c1C(C1CC=CCC1)C(C#N)=C(N)O2 (configuration not stated) | inconclusive [cytotoxic, single point] |  |
| O=C(/C=C/c1c(Cl)cccc1Cl)n1cccn1 | inconclusive [cytotoxic, single point] |  |
| CCOC(=O)Cc1csc(NC(=O)c2ccc(S(=O)(=O)N3CCOCC3)cc2)n1 | inactive |  |
| CN(C)c1ccc(-c2ccnc3c2CC(C)(C(=O)NCc2ccc(F)c(F)c2)O3)cc1 (configuration not stated) | inconclusive [cytotoxic, single point] |  |
| O=C(NC(=S)NC(c1ccccc1)c1ccncc1)c1ccccc1 (configuration not stated) | inconclusive [cytotoxic, single point] |  |
| CCOc1ccc(S(=O)(=O)Nc2ccc(C(=O)NN)cc2)cc1 | inactive |  |
| CC1CCN(CCOCCOc2ccccc2-c2ccccc2)CC1 | inconclusive [cytotoxic, single point] |  |
| NC(=O)CC(NC(=O)c1ccc(Br)cc1)c1ccc(NCc2ccc(F)cc2)c([N+](=O)[O-])c1 (configuration not stated) | inactive |  |
| COc1ccc(NC(=O)Cc2cccc(F)c2)cc1S(=O)(=O)Nc1ccccc1Cl | inconclusive [cytotoxic, partial curve, poor fit] |  |
| C=CCn1c(C2CCCCC2)n[nH]c1=S | inactive |  |
| CC(C)C(C(=O)NC1CCCC1)N1CCN(c2ncccc2C#N)CC1 (configuration not stated) | inactive |  |
| Cc1ccc(C(=O)N2C(=S)C(c3ccc(F)cc3)=NC23CCN(C)CC3)cc1 | active: 18.4 µM |  |
| CC(C)N1CCN(C(=O)C2CCC(=O)N(CCc3cccc(F)c3)C2)CC1 (configuration not stated) | inactive |  |
| COCCCNC(=O)c1sc2ncnc(N3CCc4ccccc4C3)c2c1C | inconclusive [cytotoxic, single point] |  |
| COc1ccc(CC(C)N2CCN(c3ccccc3)CC2)cc1OC (configuration not stated) | inconclusive [cytotoxic, partial curve] |  |
| CCCCCCCCCCCCCCCC[n+]1cccc(C(=O)N(CC)CC)c1 | active: 20.6 µM |  |
| O=C(COc1ccccc1)NCC(=O)N/N=C/c1ccc(O)cc1O | inconclusive [cytotoxic, single point] |  |
| Cc1ccc(N=c2c([N+](=O)[O-])nn(-c3ccccc3)n2O)c(C)c1 | inconclusive [cytotoxic, single point] |  |
| Nc1nc(-c2ccccc2)cc(N2CCCCC2)n1 | inconclusive [cytotoxic, single point] |  |
| COc1ccccc1Cn1c(C)c(C(=O)NCCC#N)sc1=O | inconclusive [cytotoxic, single point] |  |

| Compound | Potency | activity, negative = toxicity |
| --- | --- | --- |
| C(=C\c1ccccc1)/CSc1nnc(-c2ccccn2)n1Cc1ccco1 | active: 4.11 µM |  |
| Cc1ccc2oc(=O)c3cc(C(=O)NCCCN4C(C)CCCC4C)sc3c2c1 (configuration not stated) | inconclusive [cytotoxic, single point] |  |
| O=C1C=C(c2ccc3[nH]ccc3c2)C[C@@H](c2ccc(Cl)cc2)C1 | inconclusive [cytotoxic, single point] |  |
| COC(=O)c1nn(-c2ccc(OC)cc2)c(=O)cc1O | inactive |  |
| COc1cc(NC(=O)N2CCNC2=O)cc(C(=O)Nc2cccc(C(F)(F)F)c2)c1 | active: 5.8 µM |  |
| COc1ccc(C(=O)CCN2CCN(c3ccc(OC)cc3)CC2)cc1 | inconclusive [cytotoxic, single point] |  |
| CC(C)(O)C#Cc1ccc(C(=O)N2CCC(C(N)=O)(N3CCCCC3)CC2)o1 | inactive |  |
| Nc1cc(Cl)cc2c1-c1ccc(Cl)cc1C2 | inactive |  |
| COC(=O)CCC(=O)Nc1ccc(S(=O)(=O)N2CCc3ccccc32)cc1 | inactive |  |
| FC(F)(F)c1cc(Sc2ccccc2)nc(-c2ccccn2)n1 | inconclusive [cytotoxic, single point] |  |
| Cc1nc(=O)c(-c2ccccc2)c(C)n1-c1cccc(/C=C/C(=O)O)c1 | inactive |  |
| C=CCOc1cccc(C(=O)/C=C2/C(=O)Nc3ccccc32)c1 | inconclusive [cytotoxic, single point] |  |
| CCCOC(=O)c1cccc(NC(=O)C(C)(C)C)c1 | inactive |  |
| COc1ccc(Cn2cc3c(-c4ccc(F)cc4)nnc-3c3cc(OC)c(OC)cc32)cc1 | inconclusive [cytotoxic, single point] |  |
| COc1ccc(CC(N)c2csc(Nc3nccc(C(F)(F)F)n3)n2)cc1 (configuration not stated) | inconclusive [cytotoxic, single point] |  |
| S=C(N/N=C/c1cccs1)NC1CC2CCC1C2 (configuration not stated) | inconclusive [cytotoxic, single point] |  |
| O=C(O)/C=C/c1cn(-c2ccccc2)nc1-c1ccc(-c2ccc([N+](=O)[O-])cc2)o1 | inactive |  |
| CCOC(=O)c1cc(-c2csc(Nc3c(C)cc(C)cc3C)n2)on1 | inconclusive [cytotoxic, single point] |  |
| COc1ccc(OCCn2c(NC(=O)c3ccco3)nc3ccccc32)cc1 | inconclusive [cytotoxic, single point] |  |
| COc1ccccc1/C=C/C(=O)NCCc1ccccn1 | inactive |  |
| CN(C)c1ccc(-c2csc(C(O)c3cccc(Cl)c3)n2)cc1 (configuration not stated) | inconclusive [cytotoxic, single point] |  |
| CCOC(=O)COc1ccc(N)cc1CC(NC(C)=O)(C(=O)OCC)C(=O)OCC | inconclusive [rising, partial curve, poor fit] |  |
| O=C(Nn1cc(C(=O)Nc2ccc(F)cc2F)c2ccccc2c1=O)c1cnccn1 |  | inconclusive: -6.14% [cytotoxic] |
